In PubChem BioAssay AID652104 (National Center for Advancing Translational Sciences (NCATS), 2013):
The campaign covered roughly 410,000 compounds. About 7,200 (1.8%) were called active. The shares of active, inactive and inconclusive entries below differ from those in the screen. Calls come from the whole dose curve; as a rule, active = well fitted activation curve with a large enough effect; inconclusive = small, poorly fitted or top-dose-only effect, or another doubt; inactive = no such curve, though single readings can be large or run the other way. No potency is given beside an inconclusive call; the fits are too rough.

Experiment: qHTS of TDP-43 Inhibitors; note: nearly all actives have a fitted effect of over 50% in size; for growth rescue (activation): % of control where 0% means no effect
Details: TDP-43 expressing yeast growth rescue, BacTiter-Glo, 24 h; growth rescue (activation): at 46.1 µM (top of the series) unless noted
Method in brief: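 In this qHTS, compounds that restore growth of yeast expressing TDP-43 appear as activators. Cells (OD600=0.02, galactose medium, raffinose-pregrown) are incubated with compound 24 hr at 30 deg C and growth is quantified by BacTiter-Glo.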
Potency is the fitted concentration of half-maximal effect; tags give direction and shape of the fitted curve.

| Structure (SMILES) | Potency | growth rescue (activation) |
| --- | --- | --- |
| CC1CCCCN1C(=O)CSc1nc(-c2ccccc2)no1 (stereo not given) | inconclusive [activator, partial curve] |  |
| O=C(Cc1ccc(F)cc1)c1ccc(O)cc1O | active: 12.6 µM |  |
| COc1cc(/C=C(/C#N)c2nc(-c3cc4ccccc4oc3=O)cs2)ccc1O | inactive |  |
| ON=C1c2ccccc2-c2ccccc21 | inconclusive [activator, single point] |  |
| CNC(=O)C[C@@H]1C(=O)N(Cc2ccccc2)CC1(C)C | inconclusive [activator, full curve, poor fit] |  |
| NC(=O)c1ccc(OCc2ccccc2)nc1 | inconclusive [activator, partial curve] |  |
| O=S(=O)(c1ccc(NC(=S)NN=Cc2ccccc2O)cc1)N1CCCCC1 | inconclusive [activator, single point] |  |
| CCN(CC)CCCNC(=O)c1cn(CC)c2ccc(S(=O)(=O)N3CCC(C)CC3)cc2c1=O | inactive |  |
| COc1cc2c(cc1OC)CN(c1ccc(F)cc1[N+](=O)[O-])CC2 | inconclusive [activator, partial curve] |  |
| Cc1cc(=O)n(CC(=O)N2CCCCC2)c2c1c(C)nn2C | inactive |  |
| Cc1ccc(NC(=O)CN2C(=O)C(c3ccccc3)=NC23CCCCC3)cc1C | inconclusive [activator, full curve] |  |
| Cc1ccc(C)c(C(=O)N(Cc2nc(-c3ccc(Cl)cc3)no2)C(C)C)c1 | inconclusive [activator, single point] |  |
| O=C(OCc1ccccc1)/C(=C(\O)c1ccccc1Br)c1ccc(-c2ccccc2)cn1 | inconclusive [activator, single point] |  |
| Cc1ccc(S(=O)(=O)Oc2ccc3c(c2)O/C(=C\c2cccnc2)C3=O)cc1 | inactive |  |
| COc1ccc(NC(=O)c2ccco2)cc1NC(=O)c1cc2ccccc2o1 | inconclusive [activator, partial curve] |  |
| CCOC(=O)c1ccccc1NC(=O)CSc1nc(=O)[nH]c2c1CCCC2 | inconclusive [activator, partial curve] |  |
| COc1ccc(Br)cc1CNC(=O)Cn1nc(C)n2c(cc3cc(F)ccc32)c1=O | inactive |  |
| Cc1ccc(CSCCNC(=O)c2cccc([N+](=O)[O-])c2)cc1 | inconclusive [activator, partial curve] |  |
| COc1ccc(NC(=O)C(c2ccccc2F)n2c(=O)c(-c3ccco3)nc3ccccc32)cc1 (stereo not given) | inconclusive [activator, full curve] |  |
| C/C=C/C(=O)OCC(=O)Nc1ccc(SC(F)F)cc1 | inconclusive [activator, partial curve] |  |
| O=C(/C=C/c1ccccc1Cl)N1CCC(c2nc3ccccc3o2)CC1 | inconclusive [activator, partial curve, poor fit] |  |
| CN(CC1CCCO1)S(=O)(=O)c1ccc(C(=O)Nc2ccccc2F)cc1 (stereo not given) | inconclusive [activator, partial curve] |  |
| Cc1ccc(S(=O)(=O)c2ccc([N+](=O)[O-])cn2)cc1 |  | inconclusive: -89.3% [activator] |
| COc1cccc(-c2cc(C(=O)N3C(C)CCCC3C)no2)c1 (stereo not given) | inconclusive [activator, single point] |  |

| Structure (SMILES) | Potency | growth rescue (activation) |
| --- | --- | --- |
| COc1cc2c(cc1OC)C(c1cccc(Br)c1)CC(=O)N2 (stereo not given) | inconclusive [activator, partial curve] |  |
| Cc1ccc2oc(-c3ccc(NC(=O)CCC(=O)O)cc3)nc2c1 | inactive |  |
| O=C(c1ccc2ncsc2c1)N1CCN(c2nc3ccccc3s2)CC1 | inconclusive [activator, full curve] |  |
| CCn1cc2nc(SCC(=O)Nc3cc(OC)cc(OC)c3)n(Cc3ccc(Cl)cc3)c(=O)c2n1 | inactive |  |
| CC(=O)O/N=C(/C)c1ncc(C(F)(F)F)cc1N1CCOCC1 | inactive |  |
| CCOC(=O)Cc1csc(NC(=S)NC(=O)C(C)(C)C)n1 | inconclusive [activator, partial curve] |  |
| COc1cc(NC(=O)CN2CCN(c3ccc(F)cc3)CC2)cc(OC)c1 | inactive |  |
| O=c1c(F)cn(C2CCCO2)c(=O)n1Cc1ccc(Cl)cc1 (stereo not given) | inconclusive [activator, single point] |  |
| COc1ccc(Cc2nn3c(Cn4nnc5ccccc54)nnc3s2)cc1 | inconclusive [activator, partial curve] |  |
| Cc1ccccc1COC[C@H](CC(C)C)N1CCN(C(=O)c2cccc(C(F)(F)F)c2)CCC1=O | inactive |  |
| O=C(COc1ccccc1)Nc1nnc(-c2ccc(Cl)cc2)o1 | active: 14.1 µM |  |
| N#CC1=C(O)C(c2ccccc2)n2c1nc(=O)c1ccccc12 (stereo not given) | inactive |  |
| CC(=O)c1ccc(N2CCN(S(=O)(=O)c3ccc(-c4coc(C)n4)cc3)CC2)cc1 | inconclusive [activator, partial curve, poor fit] |  |
| Cc1ccc(OCc2nnc(SCC(=O)Nc3ccc4c(c3)OCCO4)n2Cc2ccco2)cc1 | inconclusive [activator, single point] |  |
| CCn1cc(C(=O)Nc2cccc(Cl)c2)c2cc(OC)c(OC)cc2c1=O | inconclusive [activator, partial curve] |  |
| Cc1ccccc1COC(=O)c1nn(-c2ccccc2)nc1N | inconclusive [activator, partial curve] |  |
| S=C(NCc1ccco1)N/N=C/c1ccccc1Cl | inconclusive [activator, partial curve] |  |
| CCN1CCN(Cc2ccc(NC(=O)c3cc(NC(=O)N4CCNC4=O)cc(OC)c3)cc2C(F)(F)F)CC1 | inactive |  |
| O=C(Nc1ccc(Cl)cc1)C1Cc2c(-c3ccc4c(c3)OCO4)ccnc2O1 (stereo not given) | inconclusive [activator, single point] |  |
| Cc1cc([N+](=O)[O-])c(NC2CCCCC2)c([N+](=O)[O-])c1 | active: 35.5 µM |  |
| Cc1nc2ccccc2c(=O)n1-c1ccc(NC(=O)c2ccccc2[N+](=O)[O-])cc1 | inactive |  |
| Cc1cc2nc(-c3cccc(Br)c3)c(CC3CCCCC3)n2c(C)c1Br | inconclusive [activator, partial curve] |  |
| Cc1ccc(NC2=Nc3ccccc3N3C2=Nc2c(c(C)nn2-c2ccccc2)C3c2ccc(O)c(O)c2)cc1 (stereo not given) | inconclusive [activator, single point] |  |
| CC(NC(=O)C1CCC1)c1ccc(Br)cc1 (stereo not given) | inconclusive [activator, partial curve] |  |

| Structure (SMILES) | Potency | growth rescue (activation) |
| --- | --- | --- |
| COc1cc2[nH]c3c(=O)n(CCN(C(C)C)C(C)C)cnc3c2cc1OC | inactive |  |
| O=C(CN(C(=O)CCC(=O)Nc1nccs1)c1ccc(F)cc1)NCc1ccc(F)cc1 | inconclusive [activator, single point] |  |
| Cc1cc(NCCCOC(C)C)n2c(nc3ccccc32)c1C#N | inconclusive [activator, full curve, poor fit] |  |
| CCCOc1ccc(C2(C(=O)O)CCCC2)cc1 | active: 12.6 µM |  |
| COC(=O)N/N=C\c1c(C)nn(-c2ccccc2)c1Cl | inconclusive [activator, partial curve] |  |
| O=C1CC(N2CCN(c3cccc(C(F)(F)F)c3)CC2)C(=O)N1c1ccccc1F (stereo not given) | inconclusive [activator, single point] |  |
| O=C(CSc1nccn1-c1cccc(Cl)c1)Nc1ccc2c(c1)OCO2 | active: 17.8 µM |  |
| COc1ccc(NC(=S)N/N=C/c2ccc(F)cc2)cc1OC | inconclusive [activator, partial curve] |  |
| COC(=O)c1c(NC(=O)CN2C(=O)C(=O)N(C(C)C)C2=O)sc(C)c1C | inactive |  |
| Cc1ccc(C(=O)CSc2nnc3c4ccccc4nc(C(C)(C)C)n23)cc1 | inactive |  |
| CCOC(=O)Cc1csc(SCC(=O)NC(C)C23CC4CC(CC(C4)C2)C3)n1 (stereo not given) | active: 22.4 µM |  |
| CC(C)(C)NC(=O)C(c1cccc2ccccc12)n1c(=O)c(-c2ccccc2)nc2ccccc21 (stereo not given) | active: 35.5 µM |  |
| Cc1ccc(CSc2ccc3nnc(-c4cccnc4)n3n2)cc1 | inactive |  |
| COc1ccc(-c2cc(C(=O)OC3CCOC3=O)c3ccccc3n2)cc1 (stereo not given) | active: 15.8 µM |  |
| C=CCn1c(-c2csc(-c3ccccc3)n2)n[nH]c1=S | inconclusive [activator, partial curve] |  |
| CC(C)Cc1nnc(NS(=O)(=O)c2ccc(Cl)cc2)s1 | inconclusive [activator, single point] |  |
| COc1ccc2c(c1)c(CCNNC(=O)C(C)(C)C)c(C)n2C(=O)c1ccc(Cl)cc1 | inconclusive [activator, partial curve] |  |
| Cc1cc(C(=O)N2CCc3ccccc3C2)on1 | inconclusive [activator, partial curve, poor fit] |  |
| O=C(O)c1ccc2ccc3ccccc3c2c1 | inconclusive [activator, partial curve] |  |
| COc1ccc(S(=O)(=O)N(C(=O)c2ccncc2)c2ccc(OC(=O)c3ccncc3)cc2)cc1 | inconclusive [activator, single point] |  |
| Cc1cc(C)n(Cc2ccc(C(=O)Nc3cccc(Br)c3)o2)n1 | inconclusive [activator, full curve, poor fit] |  |
| O=C(Nc1ccc(F)c(Cl)c1)c1ccc2c(c1)OCO2 | inconclusive [activator, partial curve, poor fit] |  |
